# Over roughly 81,000 sequences, “one-hybrid fitness for binding NBS DNA” has its median near -0.1; the highest 2% begin near 0.36. Some of the results follow.
# B1: Caulobacter ParB omega fusion; a variant is named by its letters at X, in order, B8GW30 (parent)
# chain: MESVVVGEPGMSEGRRGLGRGLSALLGEVDAAPAQAPGEQLGGSREAPIEILQRNPDQPRRTFREEDLEDLSNSIREKGVLQPILVRPSPDTAGEYQIVAGERAWRAAQRAGLKTVPIMVRELDDLAVLEIGIIENVQRADLNVLEEALSYKVLMEKFERTQENIAQTIGKSXSHVANXMRLLXLPDEVQSYLVSGELTAXHARAIAAAADPVALAKQIIEGGLSVRETEALARKAPNLSAGKSKGGRPPRVKDTDTQALESDLSSVLGLDVSIDHRGSTGTLTITYATLEQLDDLCNRLTRGI
# Variants of: B1
# Test: one-hybrid fitness for binding NBS DNA (the Noc-binding site; scaled: cognate 1, non-cognate 0); higher = stronger binding
# Conditions: with NBS DNA site
# How it was run: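 Bacterial one-hybrid selection in E. coli USO rpoZ- hisB- pyrF- with a HIS3 reporter carrying the site 19 bp from the promoter, screening Caulobacter ParB libraries with four specificity codons randomised (NNS). Cells grew 48 hours at 37°C on M9-minus-histidine plus 0.1 mM IPTG and 5 mM 3-AT. Plasmids before and after selection were Illumina-sequenced, three replicate libraries pooled, and variants under 10 reads dropped. Fitness is the log change in variant-to-wild-type read ratio, rescaled to cognate 1, non-cognate 0.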
row,Variant,one-hybrid fitness for binding NBS DNA
1,GQSM,≤ 0.2
2,RENV,≤ 0.2
3,RIKM,≤ 0.2
4,TNQR,≤ 0.2
5,FYTR,≤ 0.2
6,PQVA,≤ 0.2
7,VMSA,≤ 0.2
8,VTCS,≤ 0.2
9,LCAW,≤ 0.2
10,SMVP,≤ 0.2
11,CNNV,≤ 0.2
12,LINF,≤ 0.2
13,VDMS,≤ 0.2
14,PHRW,≤ 0.2
15,SLKA,≤ 0.2
16,THIF,≤ 0.2
17,TTYV,≤ 0.2
18,CPIS,≤ 0.2
19,RSMH,≤ 0.2
20,QRSF,0.262
21,NQTF,≤ 0.2

row,Variant,one-hybrid fitness for binding NBS DNA
1,VYHA,≤ 0.2
2,RLCR,0.412
3,GMYA,≤ 0.2
4,QQGF,≤ 0.2
5,LKFS,≤ 0.2
6,PNTF,≤ 0.2
7,LIHA,≤ 0.2
8,KSQI,≤ 0.2
9,AEHS,≤ 0.2
10,TFRD,≤ 0.2
11,DKPC,≤ 0.2
12,NEQS,≤ 0.2
13,QGDT,≤ 0.2
14,LDIS,≤ 0.2
15,GDDT,≤ 0.2
16,KGYF,≤ 0.2
17,RCEC,≤ 0.2
18,CVAG,≤ 0.2
19,VLVR,≤ 0.2
20,HAWG,≤ 0.2
21,ESVP,≤ 0.2

row,Variant,one-hybrid fitness for binding NBS DNA
1,DTHV,≤ 0.2
2,APCC,≤ 0.2
3,LMIQ,≤ 0.2
4,ERGA,≤ 0.2
5,LSDV,≤ 0.2
6,QDTT,≤ 0.2
7,LKWV,≤ 0.2
8,LMQG,≤ 0.2
9,HILM,≤ 0.2
10,RYVF,≤ 0.2
11,NIFS,≤ 0.2
12,RYMC,≤ 0.2
13,MTAY,≤ 0.2
14,QHSF,≤ 0.2
15,RMDN,≤ 0.2
16,CFLC,≤ 0.2
17,RHIY,≤ 0.2
18,VNEL,≤ 0.2
19,LRVR,0.207
20,VHLK,≤ 0.2
21,AKYT,≤ 0.2

row,Variant,one-hybrid fitness for binding NBS DNA
1,IVQY,≤ 0.2
2,ENKS,≤ 0.2
3,RTIS,0.34
4,PFAY,≤ 0.2
5,NNTL,≤ 0.2
6,YTDS,≤ 0.2
7,EKSL,≤ 0.2
8,ENLS,≤ 0.2
9,LSHM,≤ 0.2
10,DNDG,≤ 0.2
11,GRIT,≤ 0.2
12,TSMR,≤ 0.2
13,FDNR,≤ 0.2
14,PMAW,≤ 0.2
15,WLHS,≤ 0.2
16,LVWT,≤ 0.2
17,FTLT,≤ 0.2
18,TLSF,≤ 0.2
19,AQPS,≤ 0.2
20,WADG,≤ 0.2
21,PSFV,≤ 0.2

# From a collection of fitness landscapes (doi:10.1016/j.celrep.2020.107928)
